The results in this text go back to the supplement of paper PMC10441789.

This is one part of the list. Antibody binding of pooled human sera (four to six donors per pool; dilution not stated) to peptides of the Trypanosoma cruzi antigen TSSA on microarrays. Quantile-normalised fluorescence in arbitrary units, mean of duplicate arrays; higher = more binding. No active / inactive call. The uninfected pools are read here as the healthy donors of the same country. The strongest signals lie near the top of the scale (about 60,000).

In this experiment the test system is pooled sera of chronic Chagas disease patients, Argentina. Put plainly: antibody binding signal (normalised fluorescence) (arbitrary fluorescence units); higher = stronger serum antibody binding to peptide. The procedure: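 Microarray of 15-residue peptides over residues 30-55 of Trypanosoma cruzi TSSAII, each with 1 to 10 substitutions at naturally variable positions, probed with one serum pool per country.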
The sequence GKEKKPAAGGAPSQS returned an antibody binding signal of 5710.
For DNKTAAGEAPSQPGA the value was 6840.
The sequence KKPAAGETPSPPGAS came in with an antibody binding signal of 177.
Regarding PPSGKDNKPAAGGAP, the antibody binding signal was 1040.
TDKKAATGGTPSQPG displayed an antibody binding signal of 1190.
For TPPSGTENKPATGGA the value was 49600.
PPSGTEKKAATGGTP came in with an antibody binding signal of 25800.
Take PSGTDNKTAAGETPS: the antibody binding signal came out at 12300.
For the sequence KDKKTAAGGAPSQSG, the antibody binding signal worked out at 183.
Under DKKTATGGAPSQPGA stands 991; under ENKTATGGAPSPSGA, 486.
For KKAATGGAPSQPGAS the value was 602.
Take SGKDKKPAAGGAPSQ: the antibody binding signal turned out to be 592.
For the sequence GKEKKAATGGAPSPS, the antibody binding signal turned out to be 1670.
Sequence KENKAATGGAPSPPG returned an antibody binding signal of 351.
GTDKKPATGETPSPS: the antibody binding signal is 30800.
In turn, TENKPAAGETPSPSG yielded an antibody binding signal of 44200.
In the case of GTEKKTATGGAPSQS, the antibody binding signal was 1480.
For PPSGTEKKAATGGAP the value was 26300.
Turning to GKENKPAAGGAPSPP, the antibody binding signal was found to be 1040.
On to GKENKTATGGTPSQS, for which the antibody binding signal came to 2120.
Under KDNKAAAGGTPSQSG stands 172; under SGKENKTAAGGAPSQ, 3140; under KDNKAAAGETPSQSG, 280.
For SGTEKKTAAGGTPSP, the antibody binding signal was 1280.
For TSSTPPSGTDNKPAA, the antibody binding signal stood at 38800.
DKKAAAGEAPSPSGA: the antibody binding signal worked out at 965.
Under GKDKKPATGGAPSPP stands 565.
Under KKPATGEAPSPSGAS stands 21900.
The sequence KENKTATGEAPSQPG displayed an antibody binding signal of 15600.
The sequence KKTAAGEAPSQSGAS showed an antibody binding signal of 218.
TENKPAAGGTPSQSG showed an antibody binding signal of 50600.
Consider TEKKPAAGGTPSPSG, for which the antibody binding signal came out at 1720.
Under PPSGTEKKPAAGGTP stands 41400.
Sequence NKAATGETPSQSGAS gave an antibody binding signal of 3030.
In the case of GTDKKPAAGGTPSQS, the antibody binding signal amounted to 265.
For PPSGTEKKTATGGAP, the antibody binding signal is 26100.
For DNKAAAGGAPSPPGA the value was 393; for TSSTPPSGKENKPAA, 20600.
With GTEKKPAAGGAPSQP, the antibody binding signal worked out at 1420.
